Reference: PubChem BioAssay (NCATS)
“And” between values parts separate entries of the source, which are not always exact repeats. Equal values may be shown once. The inconclusive results got no clear call from the source; some entries with a clear call stand among them for comparison. Where a call stands in place of a potency, no number is given. For some of these results: Potencies of inconclusive entries are doubtful fits and often do not repeat. The source made the active and inactive calls. Unless noted, the call rests on the fitted dose curve; in most records, active means well fitted curve in the direction sought with a large enough effect; inconclusive means small, poorly fitted or top-dose-only effect, or another doubt; inactive means no such curve, though single readings can be large; an effect the other way counts as inactive or inconclusive.

Key:
[1] = qHTS of pediatric cancer cell lines to identify multiple opportunities for drug repurposing: Primary screen for SK-N-MC cells (AID 1347093); conditions: SK-N-MC viability, CellTiter-Glo luminescence, 48 h; activity change, negative = cytotoxic: at 46 µM (top of the series)
Procedure, shortened: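 Metabolically active cells were quantified by ATP-dependent luminescence (CellTiter-Glo, 15 min at room temperature) following 48 h treatment. Cells had been plated at 500-1,000 per well and settled for 5 h beforehand.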

[2] = qHTS of pediatric cancer cell lines to identify multiple opportunities for drug repurposing: Primary screen for Saos-2 cells (AID 1347097); further: nearly all actives have a fitted effect of over 40% in size
Procedure, shortened: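 Quantitative HTS format: each compound titrated (MIPE 11 points from 0.78 nM, NPC 8 points from 0.59 nM) onto cells plated 5 hours earlier. After 48 h at 37 degrees C, CellTiter-Glo luminescence was recorded.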

[3] = Quantitative High-Throughput drug screen in 47 multiple myeloma cell lines against the NCATS MIPE library collection: Delta47_JCRB cell viability assay (AID 1918925; further: nearly all actives have a fitted effect of over 45% in size; further: potency means the concentration at half of the fitted maximal effect); conditions: Delta47 myeloma viability, CellTiter-Glo ATP, 48 h; series mostly up to 45.8 µM
Procedure, shortened: (§1)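 Luminescent ATP measurement with CellTiter-Glo gives viability, scaled between DMSO-only wells (100%) and media-only wells (0%). Cells, 500 per well, faced library compounds for 48 hours at 37C.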

[4] = Quantitative High-Throughput drug screen in 47 multiple myeloma cell lines against the NCATS MIPE library collection: MMM1_PLB cell viability assay (AID 1918976); further: potency means the concentration at half of the fitted maximal effect; nearly all actives have a fitted effect of over 35% in size
Procedure, shortened: (§2)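 Readout: median RLU from CellTiter-Glo after 5 min at room temperature. Preceding step was 48 h drug treatment of 500 cells/well at 37 °C, 5% CO2, with DMSO-only and media-only control wells.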

[5] = Quantitative High-Throughput drug screen in 47 multiple myeloma cell lines against the NCATS MIPE library collection: MM1R_ATCC cell viability assay (AID 1918981); further: nearly all actives have a fitted effect of over 35% in size; further: potency means the concentration at half of the fitted maximal effect
Procedure, shortened: as §2

[6] = Quantitative High-Throughput drug screen in 47 multiple myeloma cell lines against the NCATS MIPE library collection: U266_ATCC cell viability assay (AID 1919864); further: nearly all actives have a fitted effect of over 35% in size; further: potency means the concentration at half of the fitted maximal effect
Procedure, shortened: as §2

[7] = Quantitative High-Throughput drug screen in 47 multiple myeloma cell lines against the NCATS MIPE library collection: PCM6_Riken cell viability assay (AID 1919870); further: nearly all actives have a fitted effect of over 30% in size; further: potency means the concentration at half of the fitted maximal effect
Procedure, shortened: as §2

[8] = Quantitative High-Throughput drug screen in 47 multiple myeloma cell lines against the NCATS MIPE library collection: RPMI8226_ATCC cell viability assay (AID 1919871); further: nearly all actives have a fitted effect of over 30% in size
Procedure, shortened: as §2

[9] = Quantitative High-Throughput drug screen in 47 multiple myeloma cell lines against the NCATS MIPE library collection: KMS28BM_JCRB cell viability assay (AID 1919874); further: nearly all actives have a fitted effect of over 35% in size
Procedure, shortened: as §2

MKL-2 = test: qHTS assay to identify novel small-molecules to repurpose for Merkel cell carcinoma treatment (AID 1296009); conditions: MCC and control cell lines, CellTiter-Glo viability, 72 h; series mostly up to 46 µM; further: nearly all actives have a fitted effect of over 60% in size; further: potency means the concentration at half of the fitted maximal effect
Procedure, shortened: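 Luminescence from CellTiter-Glo, read 10 min after addition at room temperature, reported viability following a 72 hr, 37 degree celsius treatment with NPC or MIPE compounds in titration; values normalized to plate controls.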

[10] = qHTS of pediatric cancer cell lines to identify multiple opportunities for drug repurposing: Primary screen for SJ-GBM2 cells (AID 1347091)
Procedure, shortened: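 Eight- or eleven-point concentration series, 48 h treatment at 37 degrees C in growth media; readout CellTiter-Glo luminescence. Potency and efficacy were taken from the concentration-response curves.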

[11] = target: Cytochrome P450 2C9 (Homo sapiens) (UniProt P11712); test: Cytochrome P450 family 2 subfamily C member 9 (CYP2C9) small molecule antagonists: luciferase biochemical (cell-free) qHTS assay (AID 1645842; active means well fitted curve in the direction sought with a large enough effect in the repeat runs; inconclusive means weak or mixed curves; inactive means no such curve, though single readings can be large; an effect the other way counts as inactive or inconclusive; further: nearly all actives have a fitted effect of over 55% in size)
Procedure, shortened: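 P450-Glo CYP2C9 system: proluciferin substrate with enzyme in mix containing 0.4% BSA, 10 min at room temperature, then NADPH regeneration solution added and incubated 1 h at 37C. Detection reagent stopped reaction; luminescence read after 20 min as RLU.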

[12] = Quantitative High-Throughput drug screen in 47 multiple myeloma cell lines against the NCATS MIPE library collection: SKMM1_PLB cell viability assay (AID 1919863); conditions: SKMM1 myeloma viability, CellTiter-Glo ATP, 48 h; viability: stronger effect = lower value
Procedure, shortened: as §2

[13] = Quantitative High-Throughput drug screen in 47 multiple myeloma cell lines against the NCATS MIPE library collection: H1112_PLB cell viability assay (AID 1918967; further: nearly all actives have a fitted effect of over 30% in size)
Procedure, shortened: as §1
Tags describe the fitted curve by direction and shape.

Chain of UniProt P11712 (P11712 whole entry, looked up): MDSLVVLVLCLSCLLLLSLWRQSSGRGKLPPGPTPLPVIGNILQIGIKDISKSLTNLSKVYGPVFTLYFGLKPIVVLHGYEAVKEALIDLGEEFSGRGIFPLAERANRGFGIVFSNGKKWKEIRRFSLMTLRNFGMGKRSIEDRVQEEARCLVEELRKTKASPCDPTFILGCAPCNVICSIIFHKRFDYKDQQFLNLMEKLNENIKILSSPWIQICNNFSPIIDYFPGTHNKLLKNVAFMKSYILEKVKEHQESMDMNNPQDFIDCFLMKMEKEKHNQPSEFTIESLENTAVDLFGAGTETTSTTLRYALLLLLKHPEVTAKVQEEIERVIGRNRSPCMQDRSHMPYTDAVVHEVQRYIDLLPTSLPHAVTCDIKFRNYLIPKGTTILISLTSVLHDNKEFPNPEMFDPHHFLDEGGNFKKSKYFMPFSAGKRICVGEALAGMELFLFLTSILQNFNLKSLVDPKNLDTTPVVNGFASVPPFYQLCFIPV

SMILES | Potency [1] | Potency [2] | Potency [3] | Potency [4] | Potency [5] | Potency [6] | Potency [7] | Potency [8] | Potency [9] | Potency (MKL-2) | Potency [10] | Potency [11] | Potency [12] | Potency [13]
C[C@@H]1CN(c2c(F)c(N)c3c(=O)c(C(=O)O)cn(C4CC4)c3c2F)C[C@H](C)N1 | inactive | inactive | inconclusive: 1.15 µM [rising, full curve, poor fit] | inconclusive: 10.2 µM [cytotoxic, single point] | inconclusive: 0.0013 µM [rising, full curve, poor fit] | inconclusive: 0.0115 µM [rising, full curve, poor fit] | inactive | inactive | inactive | inactive | – | – | – | –
CN1CCN(c2c(F)cc3c(=O)c(C(=O)O)cn4c3c2OCN4C)CC1 | – | – | inactive | inconclusive: 9.35 µM [cytotoxic, partial curve, poor fit] | inactive | inactive | inactive | – | inactive | – | inactive | inactive | inconclusive: 0.0021 µM [cytotoxic, full curve, poor fit] | –
CN(C)CCc1c[nH]c2ccc(CS(=O)(=O)N3CCCC3)cc12 | – | – | inactive | inconclusive: 0.0074 µM [rising, full curve] | inconclusive: 23.5 µM [cytotoxic, single point] | inactive | inconclusive: 5.9 µM [cytotoxic, partial curve, poor fit] | inactive | inactive | inactive and inconclusive: 9.35 µM [inhibitor, single point] | – | – | – | inactive
